Test results reported in PubChem BioAssay AID488969 (Vanderbilt High Throughput Screening Facility, 2010).
Over roughly 110,000 compounds, “z-score” has its median near -0.1; the highest 2% begin near 2. Some of the results follow.

target: Metabotropic glutamate receptor 8 (Rattus norvegicus) (UniProt P70579); experiment: rat mGluR8 modulators via GIRK flux, primary screen, cell-based, thallium flux, HTS (AID 488969); conditions: HEK293 rat mGluR8, GIRK (G protein-gated inwardly rectifying potassium channel) thallium flux, FluoZin2; at 10 µM; stronger effect = higher value; submaximal glutamate (EC20) added with thallium
UniProt P70579, sequence (P70579 whole entry, looked up): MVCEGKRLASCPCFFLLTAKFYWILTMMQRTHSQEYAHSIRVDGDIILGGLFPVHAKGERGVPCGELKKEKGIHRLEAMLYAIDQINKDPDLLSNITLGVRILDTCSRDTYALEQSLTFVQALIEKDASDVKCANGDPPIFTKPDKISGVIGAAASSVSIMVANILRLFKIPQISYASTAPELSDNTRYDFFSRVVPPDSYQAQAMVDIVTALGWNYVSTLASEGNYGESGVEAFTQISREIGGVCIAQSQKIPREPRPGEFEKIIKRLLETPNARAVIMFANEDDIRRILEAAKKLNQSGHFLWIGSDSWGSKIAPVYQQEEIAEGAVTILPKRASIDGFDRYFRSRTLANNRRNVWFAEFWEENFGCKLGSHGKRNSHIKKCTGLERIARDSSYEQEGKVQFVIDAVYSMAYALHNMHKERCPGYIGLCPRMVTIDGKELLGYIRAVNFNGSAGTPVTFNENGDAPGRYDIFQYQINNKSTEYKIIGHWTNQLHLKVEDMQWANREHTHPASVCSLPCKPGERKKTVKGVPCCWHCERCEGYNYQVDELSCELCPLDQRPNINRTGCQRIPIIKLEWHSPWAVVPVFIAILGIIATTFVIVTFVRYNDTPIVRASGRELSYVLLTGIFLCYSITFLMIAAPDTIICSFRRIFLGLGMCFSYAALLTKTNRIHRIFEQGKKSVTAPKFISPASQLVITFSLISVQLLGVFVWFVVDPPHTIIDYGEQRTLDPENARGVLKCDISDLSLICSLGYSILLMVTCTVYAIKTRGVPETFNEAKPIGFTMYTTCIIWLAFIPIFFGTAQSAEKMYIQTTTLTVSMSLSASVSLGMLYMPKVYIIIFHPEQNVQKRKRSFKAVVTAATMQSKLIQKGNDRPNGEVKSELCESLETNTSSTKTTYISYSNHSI

| SMILES | z-score |
| --- | --- |
| CC(C)C(=O)Nc1nnc(CCN2CCOCC2)s1 | -0.652 |
| O=C(COC(=O)Cc1ccccc1F)Nc1ccc(SC(F)F)cc1 | -0.337 |
| O=C(NC(c1ccccc1)c1ccccc1)c1ccc(S(=O)(=O)C(F)F)cc1 | -0.0614 |
| Cc1nnc(SCC(=O)N2CCOCC2)c2ccccc12 | 0.316 |
| O=C(N/N=C/c1cccnc1)c1ccccc1[N+](=O)[O-] | 0.0555 |
| COc1ccc2nc(N/C(N)=N/C(=S)Nc3cccc(C)c3)nc(C)c2c1 | -0.371 |
| N/C(Cc1ccc([N+](=O)[O-])cc1)=N\OC(=O)Cc1ccc(Cl)cc1 | 0.0116 |
| Cc1cc(C)n2nc(C(=O)Nc3cccnc3)nc2n1 | -1.24 |
| O=C(Nc1ccccc1)N(CCCN1CCOCC1)Cc1cc2cc3c(cc2[nH]c1=O)OCCO3 | -0.351 |
| COc1cccc(C(C(=O)NC2CCCC2)N(Cc2ccco2)C(=O)c2ccco2)c1OC (stereo not drawn) | -0.188 |
| Cc1cccc(NC(=O)c2cnn(C)c2)c1C | -0.363 |
| Cc1cc(=O)cc(C)n1-c1ccccc1N1CCOCC1 | 0.19 |
| COC(=O)C1=C(N)OC2=C(C(=O)CCC2)C1c1cccs1 (stereo not drawn) | -0.205 |
| CCCCNC(=O)CC(C(=O)N1CCc2ccccc21)n1ccnc1 (stereo not drawn) | -0.0472 |
| O=C(N/N=C/c1ccc2c(c1)OCO2)c1ccccn1 | 0.385 |
| CCOC(=O)c1[nH]c(C)c(/C(O)=C2\C(=O)C(=O)N(CCN(C)C)C2c2ccc(C)o2)c1C (stereo not drawn) | -0.288 |
| Cc1ccc2[nH]c3c(=O)n(CCCN4CCOCC4)cnc3c2c1 | -0.0181 |
| CCCCCn1c2nc3ccccc3nc2c2c(=O)n(CC(C)C)cnc21 | -0.289 |
| CCCn1c(Cc2ccccc2)nnc1SCC(=O)N1CCOCC1 | -0.146 |
| COC(=O)N/N=C/c1cc(C)n(-c2cccc3ccccc23)c1C | 0.0823 |
| CC(=O)N1C(=O)C2(C(C#N)=C(N)Oc3c2c(C)nn3-c2ccccc2)c2ccccc21 (stereo not drawn) | 0.946 |
| CCOCCCNCc1ccc(OC)c(OC)c1 | 0.4 |
| CCN(CC)CCCNS(=O)(=O)c1ccc(OC)cc1 | -0.0141 |
| Cc1n[nH]c(=S)n1/N=C/c1ccc(Br)o1 | -0.0632 |
| Nn1c(SCc2cccc3ccccc23)nnc1-c1ccco1 | 0.217 |

| SMILES | z-score |
| --- | --- |
| N#Cc1c(NC(=O)c2nc3ncccn3n2)sc2c1CCCCC2 | -0.0691 |
| COCCCNC(=O)CN(c1cc(OC)ccc1OC)S(=O)(=O)c1ccccc1 | -0.283 |
| Cc1nnnn1CC(=O)Nc1ccccc1[N+](=O)[O-] | -0.367 |
| O=C1CC(N2CCC(Cc3ccccc3)CC2)C(=O)N1CCc1ccccc1 (stereo not drawn) | 0.135 |
| COC(=O)C1Sc2[nH]c(=O)sc2C(c2ccc(Cl)cc2)C1C(=O)OC (stereo not drawn) | -1.56 |
| CCOC(=O)c1cc(S(=O)(=O)NC2CCN(C(=O)OCC)CC2)cn1C | -0.118 |
| O=C(CN1C(=O)c2ccccc2S1(=O)=O)N1CCc2ccccc21 | -0.453 |
| CCN(CC)CCn1c(/N=C/c2cc(Br)ccc2O)nc2ccccc21 | -0.173 |
| COc1cc2c(cc1OC)C1=C(C#N)CN(CC(=O)O)CN1CC2 | 0.0477 |
| CCOC(=O)N1CCC(NC(=O)c2cc(S(=O)(=O)N(CC)CC)ccc2F)CC1 | 0.131 |
| COc1cc(NC(=O)CSc2nc(C)c(C)c(C)n2)c(C)cc1[N+](=O)[O-] | 0.122 |
| O=C(NC1CC2CCC1C2)c1ccc(CN2CCOCC2)cc1 (stereo not drawn) | -0.0921 |
| CC(C)c1cc(-c2n[nH]c(=S)n2Cc2ccccc2)cs1 | 1.35 |
| O=C(O)c1ccc(-n2nc(C(F)(F)F)c3c2CCCC3)cc1 | -0.421 |
| O=C(Nc1ccccc1)c1cccc(S(=O)(=O)Oc2ccc([N+](=O)[O-])cc2)c1 | -0.533 |
| O=C(Nc1ccc(-c2nc3ccccc3[nH]2)cc1)c1ccc(N2C(=O)CCC2=O)cc1 | -0.0927 |
| CNC(=S)N(C)c1ccccc1 | -0.0387 |
| O=C(CSc1nc2ccsc2c(=O)n1NC(=O)c1ccccc1)NCc1ccco1 | -0.656 |
| O=C(COC(=O)c1cccs1)Nc1ccc(S(=O)(=O)N2CCOCC2)cc1 | 1.69 |
| O=C(N/C(C(=O)N1CCOCC1)=C(\Sc1ncccn1)c1ccccc1)c1ccccc1 | -1.34 |
| Cc1nc2ccc(NC(=O)c3cccs3)cc2c(=O)n1Cc1ccc(Cl)cc1 | -0.209 |
| Cc1cccc(NC(=S)N2N=CCC2c2ccccc2)c1 (stereo not drawn) | -0.196 |
| COc1ccc(Br)cc1CN1CCCC(C(=O)N2CCCCC2)C1 (stereo not drawn) | 1.28 |
| CC(C)Oc1ccc(C(=O)Nc2ccc(NC(=O)c3ccco3)c(Cl)c2)cc1 | 1.02 |
| C=CCOc1c(Br)cc(CNn2nnnc2N)cc1OCC | -0.382 |

| SMILES | z-score |
| --- | --- |
| Cc1cc(=S)cc(C)n1CCCO | 0.161 |
| CCN1C(=O)N(C)C2(c3ccccc3)N(C)C(=O)N(C)C12c1ccccc1 (stereo not drawn) | 0.959 |
| CCOC(=O)c1ccc(NC(=O)CSc2nnc(CNC(=O)c3c(F)cccc3Cl)o2)cc1 | 0.605 |
| Cc1nc(NCCN2CCOCC2)c2nnn(Cc3c(F)cccc3Cl)c2n1 | -0.365 |
| COc1ccc(C(=O)Oc2ccc(=O)n(-c3ccccc3)n2)cc1 | -0.0671 |
| Cc1cc(C)n(C(=O)COc2ccccc2C)n1 | -0.319 |
| O=C1c2ccccc2OC2(C=Cc3ccccc3O2)N1Cc1ccccc1 (stereo not drawn) | 0.198 |
| COc1cc(CNC2CCCC2)cc(Cl)c1OCc1ccccc1F | 2.5 |
| COC(=O)CN(c1ccc2c(c1)OCCO2)S(=O)(=O)c1ccccc1 | 0.274 |
| O=C(NCc1ccccc1)c1ccc2c(c1)C(=O)N(Cc1ccncc1)C2=O | 0.00455 |
| CCOc1ccc(CNC(=S)N/N=C/c2cccnc2)cc1 | 0.216 |
| CCOC(=O)N1CCN(C(=O)Cn2ccc3ccccc3c2=O)CC1 | 0.275 |
| Cc1ccc(C23OC(=O)C(C)(C)C2OC(=O)C3(C)C)cc1 (stereo not drawn) | -0.382 |
| COc1ccc(/C=N/c2oc(-c3ccccc3)cc2C#N)cc1 | -0.0521 |
| O=C(c1ccco1)N1CCN(C(=O)c2cc(-c3ccccc3)nc3ccccc23)CC1 | 0.86 |
| Clc1ccc(CSc2nnc(-c3c[nH]c4ccccc34)o2)cc1 | -0.158 |
| C=CCNC(=O)c1ccc2nccnc2c1 | 0.0818 |
| CC(=O)c1ccc(Oc2cc(C)nc(NCc3ccccc3)n2)cc1 | 0.293 |
| CCN(CC)CCCC1(CN)OCCc2ccccc21 (stereo not drawn) | -0.332 |
| CCOC(=O)c1c(C)[nH]c(O)c1C=Nc1ccc(Cl)cc1 | -0.0084 |
| CCCCCCCCN=C1NC(=O)CS1 | -0.334 |
| O=C(CN1C(=O)c2ccccc2S1(=O)=O)NCCC1=CCCCC1 | -0.52 |
| O=S(=O)(NCC1CCCO1)c1ccc2c(c1)OCCO2 (stereo not drawn) | -0.00993 |
